30 molecules from the antibiotic and cytotoxicity screens of Wong et al. (2023) can be followed below.

The list shows a part of the results.

The test system of assay [1] is HSkMC (human skeletal muscle cells). The assay is described as follows: cytotoxicity call (relative viability < 0.9). Conditions: 10 µM.
The subject of assay [2] is S. aureus RN4220. The assay is described as follows: growth inhibition call (relative growth <= 0.2). Conditions: 50 µM.

For the molecule `Cc1ccc(S(=O)(=O)Nc2ccc3c(c2)C(=O)N([C@@H](C)CO)C[C@H](C)[C@@H](CN(C)Cc2ccc4c(c2)OCO4)OCCCC[C@@H](C)O3)cc1`, in assay [1], the cytotoxicity call is “inactive”. In addition, in assay [2], the growth inhibition call is “inactive”.
`CS(=O)(=O)Nc1ccc2c(c1)[C@H]1C[C@@H](CC(=O)NCC3CC3)O[C@H](CO)[C@H]1O2`: in assay [1], the cytotoxicity call was “inactive”. For the same molecule, the growth inhibition call in assay [2] is “inactive”.
For the molecule `COc1cccc(C#Cc2ccc3c(c2)O[C@H](CN(C)C(=O)c2ccccn2)[C@@H](C)CN([C@H](C)CO)S3(=O)=O)c1`, the cytotoxicity call in assay [1] was “inactive”. The growth inhibition call in assay [2] was “inactive”.
Regarding `COc1ccc(S(=O)(=O)Nc2ccc3c(c2)C(=O)N([C@H](C)CO)C[C@H](C)[C@@H](CN(C)Cc2ccc(-c4ccccc4)cc2)O3)cc1`, the cytotoxicity call in assay [1] was “inactive”. Also, in assay [2], the growth inhibition call was “inactive”.
As for `COc1ccc([Si](C)(C)[C@@H]2[C@@H](CCn3cc(CCO)nn3)O[C@]3(C(=O)N(C)c4ccccc43)[C@H]2C)cc1`, in assay [1], the cytotoxicity call is “inactive”. For the same molecule, the growth inhibition call in assay [2] was “inactive”.
Regarding `C[C@@H]1CN([C@H](C)CO)C(=O)c2cccc(NC(=O)CCCCCC(=O)Nc3ccccc3N)c2O[C@H]1CN(C)S(C)(=O)=O`, the cytotoxicity call in assay [1] is “inactive”. Besides, the growth inhibition call in assay [2] was “inactive”.
As to `C[C@H](CO)N1C[C@H](C)[C@@H](CN(C)Cc2ccc(C(=O)Nc3ccccc3N)cc2)Oc2ccc(NC(=O)NC3CCCCC3)cc2CC1=O`, the cytotoxicity call in assay [1] is “inactive”. The growth inhibition call in assay [2] was “inactive”.
Regarding `C[C@@H]1CCCCO[C@@H](CN(C)S(=O)(=O)c2ccc(Cl)cc2)[C@H](C)CN([C@@H](C)CO)C(=O)c2cc(NS(=O)(=O)c3ccc(Cl)cc3)ccc2O1`, the cytotoxicity call in assay [1] is “inactive”. The growth inhibition call in assay [2] is “inactive”.
For `C[C@H](CO)N1C[C@H](C)[C@H](CN(C)Cc2ccncc2)Oc2ccc(NS(=O)(=O)c3ccccc3)cc2C1=O`, the cytotoxicity call in assay [1] was “inactive”. Besides, the growth inhibition call in assay [2] is “inactive”.
Regarding `CCNC(=S)NCC1CC1`, the cytotoxicity call in assay [1] was “inactive”. In assay [2], the growth inhibition call is “inactive”.
On to `O=C(CCCCCCC(=O)Nc1ccccc1O)N/N=C/[C@H](O)[C@@H](O)[C@H](O)CO`, for which, in assay [1], the cytotoxicity call is “inactive”. The growth inhibition call in assay [2] was “inactive”.
For `C[C@@H]1CCCCO[C@H](CN(C)Cc2ccc(C(=O)O)cc2)[C@H](C)CN([C@@H](C)CO)C(=O)c2cc(NC(=O)Nc3cccc4ccccc34)ccc2O1`, the cytotoxicity call in assay [1] was “inactive”. The growth inhibition call in assay [2] was “inactive”.
As to `C[C@H](CO)N1C[C@H](C)[C@@H](CN(C)C(=O)c2ccccc2)OCCCC[C@H](C)Oc2ccc(NS(=O)(=O)c3ccccc3)cc2C1=O`, the cytotoxicity call in assay [1] is “inactive”. Also, the growth inhibition call in assay [2] is “inactive”.
For the molecule `COc1cccc(NC(=O)N[C@H]2CC[C@H](CC(=O)N3CCN(C)CC3)O[C@H]2CO)c1`, in assay [1], the cytotoxicity call was “inactive”. In assay [2], the growth inhibition call is “inactive”.
Take `C[C@H]1COC(=O)[C@H](Cc2ccc(F)cc2)CC=CC[C@@H](CC(=O)N[C@H](CO)Cc2ccccc2)C(=O)N1`: the cytotoxicity call in assay [1] is “inactive”. Also, the growth inhibition call in assay [2] is “inactive”.
In the case of `COc1cccc(-c2cccc(-c3nc(C(=O)NCC(F)(F)F)cc4c3[C@@H](CCO)N([S@](=O)C(C)(C)C)C4)c2)c1`, the cytotoxicity call in assay [1] is “inactive”. Also, the growth inhibition call in assay [2] was “inactive”.
For `COc1ccc(NC(=O)N(C)C[C@H]2Oc3cc(C#CCN(C)C)ccc3S(=O)(=O)N([C@@H](C)CO)C[C@@H]2C)cc1`, the cytotoxicity call in assay [1] was “inactive”. In addition, the growth inhibition call in assay [2] was “inactive”.
Consider `C[C@@H]1CN([C@H](C)CO)C(=O)c2cc(NC(=O)Cn3cnnn3)ccc2O[C@@H]1CN(C)C(=O)Nc1ccc(F)cc1`, for which, in assay [1], the cytotoxicity call is “inactive”. Besides, in assay [2], the growth inhibition call is “inactive”.
As for `CC(C)NC(=O)N(C)C[C@@H]1OCc2cnnn2CCCC(=O)N([C@H](C)CO)C[C@@H]1C`, in assay [1], the cytotoxicity call was “inactive”. Further, the growth inhibition call in assay [2] is “inactive”.
`C[C@@H]1CN([C@H](C)CO)C(=O)c2cccc(NS(=O)(=O)c3ccc(Cl)cc3)c2O[C@@H]1CN(C)Cc1ccc(C(F)(F)F)cc1`: the cytotoxicity call in assay [1] is “inactive”. Moreover, the growth inhibition call in assay [2] was “inactive”.
Regarding `CCOc1ccccc1C(N)=O`, the cytotoxicity call in assay [1] is “inactive”. The growth inhibition call in assay [2] was “inactive”.
Consider `C[C@H]1CN([C@@H](C)CO)C(=O)Cc2cc(NC(=O)C3CCCCC3)ccc2O[C@H]1CN(C)C(=O)Nc1cccc2ccccc12`, for which the cytotoxicity call in assay [1] is “inactive”. In assay [2], the growth inhibition call was “inactive”.
Take `NS(=O)(=O)c1ccc(C(=O)O)cc1`: in assay [1], the cytotoxicity call was “inactive”. The growth inhibition call in assay [2] is “inactive”.
On to `O=C(O)Cn1nc2ccccc2n1`, for which the cytotoxicity call in assay [1] is “inactive”. In assay [2], the growth inhibition call is “inactive”.
With `O=C1CSCCN1`, in assay [1], the cytotoxicity call is “inactive”. The growth inhibition call in assay [2] is “inactive”.
For `COCC#Cc1cnc2c(c1)C(=O)N([C@@H](C)CO)C[C@H](C)[C@@H](CN(C)C(=O)c1cnccn1)O2`, in assay [1], the cytotoxicity call was “inactive”. Besides, the growth inhibition call in assay [2] is “inactive”.
Take `CCCCCCCCCCCCCCCCCC(=O)NCCCCOn1c(CCCC)nc2c(N)nc3ccccc3c21`: in assay [1], the cytotoxicity call was “inactive”. Moreover, in assay [2], the growth inhibition call was “inactive”.
On to `COC(=O)C[C@@H]1CC[C@@H]2[C@H](COC[C@H](O)CN2S(=O)(=O)c2ccccc2C)O1`, for which the cytotoxicity call in assay [1] is “inactive”. For the same molecule, in assay [2], the growth inhibition call was “inactive”.
On to `CC(=O)Nc1nc(C(=O)O)cs1`, for which the cytotoxicity call in assay [1] is “inactive”. Besides, the growth inhibition call in assay [2] was “inactive”.
With `C[C@@H]1CN([C@H](C)CO)C(=O)c2cc(NS(=O)(=O)c3ccc(F)cc3)ccc2O[C@H]1CN(C)S(=O)(=O)c1ccc(F)cc1`, the cytotoxicity call in assay [1] is “inactive”. Besides, in assay [2], the growth inhibition call was “inactive”.
